Results published in article PMC4336329 (PLoS ONE, 2015).
About 2,200 (0.71%) of roughly 310,000 compounds showed an effect of 50% or more. Effects have a minus sign here. This is one part of the list.

What follows are compounds tested against human ether-à-go-go-related gene (hERG) potassium channel (human, UniProt Q12809) (assay: primary screen, population patch clamp on CHO cells stably expressing hERG).
Sequence of human ether-à-go-go-related gene (hERG) potassium channel (Q12809 whole entry, looked up): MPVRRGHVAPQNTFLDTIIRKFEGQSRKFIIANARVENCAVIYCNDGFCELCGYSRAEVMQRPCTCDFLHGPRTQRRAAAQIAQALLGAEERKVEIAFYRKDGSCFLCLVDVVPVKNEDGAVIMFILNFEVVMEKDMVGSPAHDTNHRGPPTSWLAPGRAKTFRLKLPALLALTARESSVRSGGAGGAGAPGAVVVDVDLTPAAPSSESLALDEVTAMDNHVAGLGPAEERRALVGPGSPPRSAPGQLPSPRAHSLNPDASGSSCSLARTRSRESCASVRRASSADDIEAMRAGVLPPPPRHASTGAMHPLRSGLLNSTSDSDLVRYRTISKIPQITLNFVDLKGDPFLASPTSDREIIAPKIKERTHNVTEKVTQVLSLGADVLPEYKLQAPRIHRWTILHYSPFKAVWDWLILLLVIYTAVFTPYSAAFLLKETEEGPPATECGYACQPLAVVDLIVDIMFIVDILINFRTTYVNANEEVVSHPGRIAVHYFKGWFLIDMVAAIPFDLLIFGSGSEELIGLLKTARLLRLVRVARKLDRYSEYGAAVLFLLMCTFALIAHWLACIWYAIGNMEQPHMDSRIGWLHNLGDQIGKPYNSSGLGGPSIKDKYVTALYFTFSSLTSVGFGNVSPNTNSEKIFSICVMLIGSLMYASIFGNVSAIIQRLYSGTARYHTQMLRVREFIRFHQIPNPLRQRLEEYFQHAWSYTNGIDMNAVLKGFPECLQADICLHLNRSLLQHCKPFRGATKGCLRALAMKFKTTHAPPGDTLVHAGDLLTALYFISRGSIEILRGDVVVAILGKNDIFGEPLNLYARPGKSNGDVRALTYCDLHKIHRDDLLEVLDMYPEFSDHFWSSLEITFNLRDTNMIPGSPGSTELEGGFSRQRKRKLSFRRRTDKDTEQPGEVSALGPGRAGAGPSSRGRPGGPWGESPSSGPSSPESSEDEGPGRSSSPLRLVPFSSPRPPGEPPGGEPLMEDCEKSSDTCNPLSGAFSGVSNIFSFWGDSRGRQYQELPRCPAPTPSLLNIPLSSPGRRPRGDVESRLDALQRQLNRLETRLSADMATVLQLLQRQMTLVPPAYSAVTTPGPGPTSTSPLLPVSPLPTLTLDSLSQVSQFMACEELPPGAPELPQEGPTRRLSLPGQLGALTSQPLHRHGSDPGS
`COc1cccc(NC(=O)COc2ccc3c(c2)CCC3)c1` was tested, and the “hERG current change (%, negative = inhibition) at 1uM” value was 5.99%. In the case of `C=C(C)Cn1c(CCNC(=O)c2ccco2)nc2ccccc21`, the “hERG current change (%, negative = inhibition) at 1uM” value was -3.26%. For `COc1ccccc1NNC(=O)C(O)(c1ccccc1)c1ccccc1`, the “hERG current change (%, negative = inhibition) at 1uM” value was 1.88%. For `CCCOc1ccc(/C=C/C(=O)Nc2ccc([N+](=O)[O-])cc2)cc1`, the “hERG current change (%, negative = inhibition) at 1uM” value was 11.8%. In the case of `COC(=O)c1ccc(OCCOc2ccccc2C)cc1`, the “hERG current change (%, negative = inhibition) at 1uM” value was 11.4%. For `CCCN1C2CCCC1CC(NC(=O)C1CCCCC1)C2` (stereo not drawn), the “hERG current change (%, negative = inhibition) at 1uM” value was 14%. `Cc1ccc(S(=O)(=O)NC(=O)Nc2nnc(C3CC3)s2)cc1` was tested, and the “hERG current change (%, negative = inhibition) at 1uM” value was -11.1%. In the case of `COC(=O)COc1cccc(NC(=O)c2ccc(Cl)cc2)c1`, the “hERG current change (%, negative = inhibition) at 1uM” value was 8.12%. For `CCCS(=O)(=O)Nc1cccc(-c2nc3cccnc3s2)c1`, the “hERG current change (%, negative = inhibition) at 1uM” value was 5.62%. `O=C(CSc1ccccc1)OCC(=O)N1CCN(C(=O)c2ccco2)CC1` was tested, and the “hERG current change (%, negative = inhibition) at 1uM” value was 16.4%. In the case of `CN(Cc1cn(C)nc1-c1ccccc1F)CC1CCN(Cc2ccccc2)CC1`, the “hERG current change (%, negative = inhibition) at 1uM” value was 3.45%. For `CCOc1ccccc1N(CC(=O)Nc1ccc2c(c1)OCO2)S(C)(=O)=O`, the “hERG current change (%, negative = inhibition) at 1uM” value was 7.09%. With `O=C(c1c(F)c(F)c(F)c(F)c1F)N1CCN(Cc2ccc3c(c2)OCO3)CC1` the “hERG current change (%, negative = inhibition) at 1uM” value was 9.43%. For `CC(C)C[C@H](NC(=O)c1[nH]cnc1C(=O)N[C@@H](C)c1ccccc1)C(=O)OC(C)(C)C`, the “hERG current change (%, negative = inhibition) at 1uM” value was 16.3%. `Cl.N=c1c2c(n(Cc3ccccc3)c3c1CCC3)CCC2` was tested, and the “hERG current change (%, negative = inhibition) at 1uM” value was 7.98%. `CCOc1ccc(-c2ncncc2-c2ccc(OC)cc2)c(O)c1` was tested, and the “hERG current change (%, negative = inhibition) at 1uM” value was -2.07%. In the case of `CC1C(=O)N2CCCc3cc(S(=O)(=O)N(C)c4ccccc4)cc1c32` (stereo not drawn), the “hERG current change (%, negative = inhibition) at 1uM” value was 17.8%. In the case of `CCn1cc(C(=O)OCC(=O)NCc2ccc3c(c2)OCO3)c(=O)c2ccc(C)nc21`, the “hERG current change (%, negative = inhibition) at 1uM” value was 1.35%. For `Cc1ccc(NC(=O)CS(=O)CC(=O)NCCCN(C)c2ccccc2)cc1` (stereo not drawn), the “hERG current change (%, negative = inhibition) at 1uM” value was 3.83%. In the case of `O=C1/C(=C/c2ccccc2)CSc2sccc21`, the “hERG current change (%, negative = inhibition) at 1uM” value was 2.58%. In the case of `O=S1(=O)CCN(Cc2ccccn2)CC1`, the “hERG current change (%, negative = inhibition) at 1uM” value was -1.36%. For `O=c1[nH]c2cc3c(cc2cc1C(c1nnnn1Cc1ccccc1)N1CCN2CCCC2C1)OCCO3` (stereo not drawn), the “hERG current change (%, negative = inhibition) at 1uM” value was 7.96%. For `O=S(=O)(c1ccccc1)c1cnc(-c2cccnc2)nc1-c1ccc(Cl)cc1Cl`, the “hERG current change (%, negative = inhibition) at 1uM” value was -2.32%. In the case of `Cc1nc2ccccn2c1C(=O)N/N=C/c1ccccc1[N+](=O)[O-]`, the “hERG current change (%, negative = inhibition) at 1uM” value was 12.5%. `CC(C)Cc1nnc(NC(=O)CCC(=O)N2CCN(c3ccc(F)cc3)CC2)s1` was tested, and the “hERG current change (%, negative = inhibition) at 1uM” value was 10.9%. For `COc1ccc(S(=O)(=O)N2CCOC2CNC(=O)C(=O)NCc2ccccn2)cc1` (stereo not drawn), the “hERG current change (%, negative = inhibition) at 1uM” value was 1.15%. In the case of `NS(=O)(=O)c1ccc(NC(=O)C2COc3ccccc3O2)cc1` (stereo not drawn), the “hERG current change (%, negative = inhibition) at 1uM” value was 14.7%. In the case of `COc1cccc(Nc2c(Nc3cccc(OC)c3)c(=O)c2=O)c1`, the “hERG current change (%, negative = inhibition) at 1uM” value was 17.5%. With `Cc1csc(NC(=O)c2cc[n+]([O-])cc2)n1` the “hERG current change (%, negative = inhibition) at 1uM” value was -8.87%. `COc1ccc2[nH]cc(CCNC(=O)C3CCCCC3)c2c1` was tested, and the “hERG current change (%, negative = inhibition) at 1uM” value was 12.6%. In the case of `CCCCCCC(=O)Nc1c(O)c2ccccc2[nH]c1=O`, the “hERG current change (%, negative = inhibition) at 1uM” value was 4.53%. In the case of `O=C(O)Cn1nc(-c2ccccc2)oc1=O`, the “hERG current change (%, negative = inhibition) at 1uM” value was -1.31%. In the case of `CCC(C)c1ccccc1NC(=O)CN1CCN(C/C=C/c2ccccc2)CC1` (stereo not drawn), the “hERG current change (%, negative = inhibition) at 1uM” value was -10.5%. In the case of `N/C(=N\OC(=O)CCCc1ccccc1)c1cccc([N+](=O)[O-])c1`, the “hERG current change (%, negative = inhibition) at 1uM” value was 3.64%. With `CCc1cc2c(=O)[nH]c(N3CCOCC3)nc2s1` the “hERG current change (%, negative = inhibition) at 1uM” value was 3.31%. `COc1ccc(OCCOC(=O)c2ccc(-n3cnnn3)cc2)cc1` was tested, and the “hERG current change (%, negative = inhibition) at 1uM” value was 0.347%. For `CSc1ccccc1C(=O)N1CCN(S(=O)(=O)c2sc(C(=O)O)c(C)c2C(=O)O)CC1`, the “hERG current change (%, negative = inhibition) at 1uM” value was 0.019%. In the case of `CCOC(=O)N1CCN(CC(O)c2ccc3c(c2)CCN3)CC1` (stereo not drawn), the “hERG current change (%, negative = inhibition) at 1uM” value was 7.76%. In the case of `COc1cccc(CNC(=O)CCc2nc3cc(S(=O)(=O)N4CCOCC4)ccc3n2C)c1`, the “hERG current change (%, negative = inhibition) at 1uM” value was 9.08%. For `Cc1sc2ncnc(N/N=C/c3ccccc3O)c2c1C`, the “hERG current change (%, negative = inhibition) at 1uM” value was 7.96%. `N/C(=N\c1nc2c(c(=O)[nH]1)CCCC2)Nc1ccccc1` was tested, and the “hERG current change (%, negative = inhibition) at 1uM” value was -0.122%. For `Cl.Fc1cccc(Cl)c1CNC(c1ccccc1)c1ccccc1`, the “hERG current change (%, negative = inhibition) at 1uM” value was 8.24%. In the case of `CCCC(=O)NC(=S)Nc1ccc(C(C)=O)cc1`, the “hERG current change (%, negative = inhibition) at 1uM” value was 17.2%. `O=C(Nc1ccccc1)c1cc2ccccc2[nH]1` was tested, and the “hERG current change (%, negative = inhibition) at 1uM” value was 8.73%. `CC(NC(=O)CNC(=O)c1ccco1)c1ccc(S(N)(=O)=O)cc1` (stereo not drawn) was tested, and the “hERG current change (%, negative = inhibition) at 1uM” value was 14.6%.
